Test results reported in the antibiotic and cytotoxicity screens of Wong et al. (2023).
Some of the results follow.

What was measured:
HSkMC = human skeletal muscle cells; experiment: cytotoxicity call (relative viability < 0.9); conditions: 10 µM
HepG2 = experiment: cytotoxicity call (relative viability < 0.9); conditions: 10 µM
S. aureus RN4220 = experiment: growth inhibition call (relative growth <= 0.2); conditions: 50 µM

Structure (SMILES)	cytotoxicity call (HSkMC)	cytotoxicity call (HepG2)	growth inhibition call (S. aureus RN4220)
Cn1cnc(CCNC(=O)C[C@H]2CC[C@@H]3[C@H](COC[C@H](O)CN3C(=O)C3CC3)O2)c1	inactive	inactive	inactive
C[C@H]1CCCCO[C@H](CN(C)C(=O)Nc2ccc(C(F)(F)F)cc2)[C@@H](C)CN([C@@H](C)CO)C(=O)c2cc(NC(=O)Nc3ccc4c(c3)OCO4)ccc2O1	inactive	inactive	inactive
COc1ccc(CNC(=O)C[C@H]2C[C@@H]3c4cc(NC(=O)NC5CCCC5)ccc4O[C@@H]3[C@H](CO)O2)cc1	inactive	inactive	inactive
COCC(=O)Nc1ccc2c(c1)C(=O)N(C)C[C@H](OC)[C@@H](C)CN(C(=O)Cc1cccnc1)[C@@H](C)CO2	inactive	inactive	inactive
C[C@@H]1CN([C@@H](C)CO)C(=O)c2cc(NC(=O)Nc3ccc(C(F)(F)F)cc3)ccc2O[C@H]1CN(C)Cc1ccc(-c2ccccc2)cc1	active	active	inactive
O=C1c2ccccc2[C@](Cc2ccccc2I)(C(=O)NCCN2CCOCC2)[C@H](c2ccc(CO)cc2)N1C1CCCCC1	inactive	active	inactive
C[C@@H]1CCCCO[C@H](CN(C)C(=O)Nc2ccccc2)[C@@H](C)CN([C@@H](C)CO)C(=O)c2cc(NC(=O)c3ccncc3)ccc2O1	inactive	inactive	inactive
CO[C@@H](CN(C)C(=O)C1CCOCC1)[C@H](C)CN(C(=O)Nc1ccc(C(F)(F)F)cc1)[C@@H](C)CO	inactive	inactive	active
C[C@H](CO)N1C[C@H](C)[C@H](CN(C)C(=O)c2cccnc2)Oc2ncc(-c3ccc(C(=O)N(C)C)cc3)cc2C1=O	inactive	inactive	inactive
C[C@@H]1CN([C@H](C)CO)C(=O)c2cc(NS(C)(=O)=O)ccc2O[C@@H](C)CCCCO[C@@H]1CN(C)Cc1ccc(Cl)c(Cl)c1	inactive	inactive	inactive
CC[C@H]1OC(=O)[C@H](C)[C@@H](O[C@H]2C[C@@](C)(OC)[C@@H](O)[C@H](C)O2)[C@H](C)[C@@H](O[C@@H]2O[C@H](C)C[C@H](N(C)C)[C@H]2O)[C@](C)(O)C[C@@H](C)CN(C)[C@H](C)[C@@H](O)[C@]1(C)O	inactive	inactive	inactive
Cc1ccc(S(=O)(=O)N(C)C[C@@H]2OCCCC[C@H](C)Oc3ccc(NC(=O)Nc4ccc(F)cc4)cc3C(=O)N([C@H](C)CO)C[C@H]2C)cc1	inactive	inactive	inactive
C[C@@H]1CN([C@@H](C)CO)C(=O)c2cc(NC(=O)Cc3ccccc3)ccc2O[C@@H](C)CCCCO[C@@H]1CN(C)Cc1ccc(C(F)(F)F)cc1	inactive	inactive	inactive
C[C@@H]1CN([C@H](C)CO)C(=O)c2cc(NS(=O)(=O)c3ccc(F)cc3)ccc2O[C@H]1CN(C)S(C)(=O)=O	inactive	inactive	inactive
CCCCCCCCCCCC=C=CCCCC(=O)O	inactive	inactive	inactive
O=c1cc(-c2ccccc2)sc2c1ccc1ccccc12	inactive	inactive	inactive
C[C@H]1CN([C@@H](C)CO)C(=O)c2cccc(NC(=O)NC3CCCCC3)c2O[C@H]1CN(C)S(C)(=O)=O	inactive	inactive	inactive
C[C@@H]1CCCCO[C@H](CN(C)C(=O)c2ccccc2)[C@@H](C)CN([C@@H](C)CO)C(=O)c2cc(NC(=O)Nc3ccc(C(F)(F)F)cc3)ccc2O1	inactive	inactive	inactive
CO[C@@H]1CN(C)C(=O)c2ccc(NS(=O)(=O)CC(F)(F)F)cc2OC[C@@H](C)N(Cc2nccs2)C[C@@H]1C	inactive	inactive	inactive
CCCN(C)C[C@@H]1OCCCC[C@H](C)Oc2ccc(NC(=O)Nc3ccc(C(F)(F)F)cc3)cc2C(=O)N([C@@H](C)CO)C[C@@H]1C	active	inactive	inactive
COc1ccc([Si](C)(C)[C@H]2[C@H](CC(=O)N3Cc4ccccc4C[C@H]3CO)O[C@@]3(C(=O)N(C)c4c(Br)cc(C)cc43)[C@@H]2C)cc1	active	inactive	inactive
COc1ccc(S(=O)(=O)Nc2ccc3c(c2)CC(=O)N([C@@H](C)CO)C[C@@H](C)[C@@H](CN(C)S(=O)(=O)c2cccs2)O3)cc1	inactive	inactive	inactive
CN(C(=O)c1ccc(Cl)c(N2C(=O)CCS2(=O)=O)c1)[C@H]1CCS(=O)(=O)C1	inactive	inactive	inactive
C[C@@H]1CN([C@@H](C)CO)C(=O)c2cc(NC(=O)Cn3cnnn3)ccc2O[C@@H]1CN(C)Cc1ccc2c(c1)OCO2	inactive	inactive	inactive
C[C@@H]1CN([C@H](C)CO)C(=O)c2cc(NS(=O)(=O)c3ccc(F)cc3)ccc2O[C@@H](C)CCCCO[C@H]1CN(C)Cc1ccccc1	inactive	inactive	inactive
C[C@H]1CN([C@@H](C)CO)C(=O)Cc2cc(NS(=O)(=O)c3cn(C)cn3)ccc2O[C@@H]1CN(C)C(=O)Nc1ccccc1	inactive	inactive	inactive
CC(C)NC(=O)N(C)C[C@@H]1OCCCC[C@@H](C)Oc2ccc(NC(=O)Nc3ccc(F)cc3)cc2C(=O)N([C@H](C)CO)C[C@H]1C	inactive	inactive	inactive
